Test results from article PMC12772503.
Results are given in words; binding and its absence hold for the method and conditions named. Binding seen in cells or lysates may run through a third protein. Some binding calls cover weakened binding; strength is not graded here. Sequences can lack the tags named with a protein. Each block holds one binder with its values, some of them ahead of it.

Chains of the proteins cited; added tags and fusions are not shown. Lines headed by an entry give the natural chain unless they say otherwise; changes in a name come on top.
UniProt O18333: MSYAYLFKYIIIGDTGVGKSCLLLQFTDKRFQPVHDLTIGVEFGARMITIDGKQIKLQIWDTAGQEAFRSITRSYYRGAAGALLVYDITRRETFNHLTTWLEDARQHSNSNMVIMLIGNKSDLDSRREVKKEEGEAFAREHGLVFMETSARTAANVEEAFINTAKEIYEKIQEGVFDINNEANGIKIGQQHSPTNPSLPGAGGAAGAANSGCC

Experiments:
Test in all cases: co-IP; lysates (1.0 mg/ml) of transfected HEK293 cells on Pierce anti-HA magnetic beads, 2 h, 4°C; 20 mM HEPES pH 7.4, 130 mM NaCl, 2 mM MgCl2, 0.1% saponin; 60 uM GppNHp with Rab2(wt) and Rab2[Q65L] but not Rab2[S20N]; eluted with 100 mM NaOH or HA peptide; Western blot; in Fig. S2 E cells treated with 2 uM MLi-2 for 2 h or co-transfected with LRRK2^G2019S
[1] = biological target: HA-Rab2^Q65L (Drosophila) (UniProt O18333)
WT HA-Rab2 (Drosophila) = WT HA-Rab2 (Drosophila) (UniProt O18333)
[2] = biological target: T1, HA-Syd-N2 (Syd^1-529) (Drosophila) (UniProt Q9GQF1)
T1 sequence: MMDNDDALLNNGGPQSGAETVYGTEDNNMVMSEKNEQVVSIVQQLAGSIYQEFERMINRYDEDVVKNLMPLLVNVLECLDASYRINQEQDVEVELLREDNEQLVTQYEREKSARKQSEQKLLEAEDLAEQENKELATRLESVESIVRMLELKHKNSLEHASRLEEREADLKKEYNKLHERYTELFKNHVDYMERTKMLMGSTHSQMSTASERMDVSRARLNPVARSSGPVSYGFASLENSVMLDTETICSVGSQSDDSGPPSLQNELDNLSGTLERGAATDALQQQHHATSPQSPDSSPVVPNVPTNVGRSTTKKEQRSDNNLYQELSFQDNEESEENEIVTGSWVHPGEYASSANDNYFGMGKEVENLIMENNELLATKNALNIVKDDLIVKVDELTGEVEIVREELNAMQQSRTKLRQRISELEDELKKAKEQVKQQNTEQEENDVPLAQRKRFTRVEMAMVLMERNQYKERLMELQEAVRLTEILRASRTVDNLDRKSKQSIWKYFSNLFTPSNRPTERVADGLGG

[3] = biological target: T2, HA-Syd-N4 (Syd^1-485) (Drosophila) (UniProt Q9GQF1)
T2 sequence: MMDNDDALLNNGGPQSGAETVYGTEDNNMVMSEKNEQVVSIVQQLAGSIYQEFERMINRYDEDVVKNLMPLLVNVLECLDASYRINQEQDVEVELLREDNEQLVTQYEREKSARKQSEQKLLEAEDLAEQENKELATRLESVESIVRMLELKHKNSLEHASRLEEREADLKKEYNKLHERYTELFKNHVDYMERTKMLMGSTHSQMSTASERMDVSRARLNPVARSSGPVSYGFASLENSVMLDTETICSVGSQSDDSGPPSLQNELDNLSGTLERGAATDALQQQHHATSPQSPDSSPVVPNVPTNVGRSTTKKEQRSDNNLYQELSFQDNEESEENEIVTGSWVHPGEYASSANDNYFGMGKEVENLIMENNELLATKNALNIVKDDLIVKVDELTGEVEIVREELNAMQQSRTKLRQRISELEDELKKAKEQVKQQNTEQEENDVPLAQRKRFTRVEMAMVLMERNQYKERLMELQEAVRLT

[4] = biological target: T3, HA-Syd-N5 (Syd^1-198) (Drosophila) (UniProt Q9GQF1)
T3 sequence: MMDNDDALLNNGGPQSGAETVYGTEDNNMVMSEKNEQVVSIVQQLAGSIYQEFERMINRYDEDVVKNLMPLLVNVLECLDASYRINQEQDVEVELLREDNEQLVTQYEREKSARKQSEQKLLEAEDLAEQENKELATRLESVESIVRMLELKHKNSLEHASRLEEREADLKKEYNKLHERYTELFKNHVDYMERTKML

binding [1]: binds
binding (WT HA-Rab2 (Drosophila)): binds
B1: myc-Syd-N2 (Syd^1-529) (domain or fragment, UniProt Q9GQF1 1-529)
chain: T1 sequence

binding [1]: no binding
B2: myc-Syd-C1 (Syd^530-1226) (domain or fragment, UniProt Q9GQF1 530-1226)
chain: GPMFRHTGGGSPAHSHGSPSRGSGGGDNRLALTSGQPPVHPASAGLANALIMPKDYAEEGSSERISARRREQYRQLRAHVQKEDGRLHAYGWSLPINKASQEANPNRHSGGVPVPVYCNPLAEASPHMKVFCAAGVNLHGGFTKNGQSLIPANSPYAPKSTLKIAEITSPTADQSMEALDRQMARVSLETLEPETQLSSFVWICTSTHAASTVSVVDANQSATVLDAFPICASHLLCIASVQGAMESDYALLEQSEVVKAGEMLQRPGEGTELLGKVEFVRVKPKSDDEQNSNEKQQQEEEEAKEATEKSNEQLPAVSAEEPLGNVEAIKIRQPLPGAPQRLSTDGNQTNNNNNSSSSSNLLFATKSLNPILETKDRDEPAMSSVGPTMWLGAQDGWLYVHSSVGRWHECLHRVLLPDAVLAIVHVEARVVVALANAQLAVFRRQTDGQWDLNSYHLVTLGDRNHSIRCLCVAGERIWAAHRNKIFIVDPVSLNIVHSLDAHPRKESQVRQMAATGAGVWVSIRLDSTLRLYNTHTFEHKQDVDIEPYVSKMLGTGKLGFSFVRITALMVSCNRLWIGTSNGVIISVPLAEVQPKSSSDPHGQMPLCCMANAQLSFHGHRDAVKFFVSVPMLQQPNLNGGLTFTNKRPDMLVMCGGEGYIDFRINDNDMENSIQLEPNQTIENRGDKSYLIVWHVSQ

binding [2]: binds
binding [3]: binds
binding [4]: binds
B3: V5-tagged DLIC (protein, UniProt Q9VZ20 1-493)
chain: MAMNSGTQTNALTSSFTMKKKDAAAEKENLWSAILNEVQTQGSTKLPSNKSVLVLGDNATGKTTLIAKLQGVEDPKKGSGLEYAYIDVKDEYRDDMTRLGVWVLDGDPGHTNLLHYALNETNYAHTLVILTVSMTQPWGWLEQLNHWIKVLGQHIDSLQLDAKEKEAARQRLTTTWQSYCEVGDDLDPGSPVKRTMRNNSIDEDDLLPLTEDALITNLGLDIVVVVTKTDYMTTLEKEYEYRDEHFDFIQQWIRNFCLRHGTSLFYTSVKEDKNCDVLYKYLTHRIYGLPFRTPALVVEKDAVLIPAGWDSLKKISILYENMHGVKAENPYTDIIKSPPTRKAVSNREAEVQTEDEQAFLARQQEILKQGDQVRGESPLRSQGVGSNKSGPRTPGTTGQSSPKKIDPKLTPATPGAEGVLANFFNSLLHKKSGSPGTGGPGGAGNPAGPGRTANGTDAVMTPEKLAVRTDAAAELDRLSRSVKKEIDMSQSEC

binding [1]: binds
binding (WT HA-Rab2 (Drosophila)): binds
B4: myc-tagged full-length Syd (protein, UniProt Q9GQF1 1-1227)
chain: MMDNDDALLNNGGPQSGAETVYGTEDNNMVMSEKNEQVVSIVQQLAGSIYQEFERMINRYDEDVVKNLMPLLVNVLECLDASYRINQEQDVEVELLREDNEQLVTQYEREKSARKQSEQKLLEAEDLAEQENKELATRLESVESIVRMLELKHKNSLEHASRLEEREADLKKEYNKLHERYTELFKNHVDYMERTKMLMGSTHSQMSTASERMDVSRARLNPVARSSGPVSYGFASLENSVMLDTETICSVGSQSDDSGPPSLQNELDNLSGTLERGAATDALQQQHHATSPQSPDSSPVVPNVPTNVGRSTTKKEQRSDNNLYQELSFQDNEESEENEIVTGSWVHPGEYASSANDNYFGMGKEVENLIMENNELLATKNALNIVKDDLIVKVDELTGEVEIVREELNAMQQSRTKLRQRISELEDELKKAKEQVKQQNTEQEENDVPLAQRKRFTRVEMAMVLMERNQYKERLMELQEAVRLTEILRASRTVDNLDRKSKQSIWKYFSNLFTPSNRPTERVADGLGGGPMFRHTGGGSPAHSHGSPSRGSGGGDNRLALTSGQPPVHPASAGLANALIMPKDYAEEGSSERISARRREQYRQLRAHVQKEDGRLHAYGWSLPINKASQEANPNRHSGGVPVPVYCNPLAEASPHMKVFCAAGVNLHGGFTKNGQSLIPANSPYAPKSTLKIAEITSPTADQSMEALDRQMARVSLETLEPETQLSSFVWICTSTHAASTVSVVDANQSATVLDAFPICASHLLCIASVQGAMESDYALLEQSEVVKAGEMLQRPGEGTELLGKVEFVRVKPKSDDEQNSNEKQQQEEEEAKEATEKSNEQLPAVSAEEPLGNVEAIKIRQPLPGAPQRLSTDGNQTNNNNNSSSSSNLLFATKSLNPILETKDRDEPAMSSVGPTMWLGAQDGWLYVHSSVGRWHECLHRVLLPDAVLAIVHVEARVVVALANAQLAVFRRQTDGQWDLNSYHLVTLGDRNHSIRCLCVAGERIWAAHRNKIFIVDPVSLNIVHSLDAHPRKESQVRQMAATGAGVWVSIRLDSTLRLYNTHTFEHKQDVDIEPYVSKMLGTGKLGFSFVRITALMVSCNRLWIGTSNGVIISVPLAEVQPKSSSDPHGQMPLCCMANAQLSFHGHRDAVKFFVSVPMLQQPNLNGGLTFTNKRPDMLVMCGGEGYIDFRINDNDMENSIQLEPNQTIENRGDKSYLIVWHVSQR
